The target in assay [1] is T1, mouse LRP6 (mLRP6) protein (Cat. No. 2960-LR-025, R&D, USA) (mouse, UniProt O88572 20-1370, limits assumed).
T1 construct: Coated on the ELISA plate
T1 sequence (looked up): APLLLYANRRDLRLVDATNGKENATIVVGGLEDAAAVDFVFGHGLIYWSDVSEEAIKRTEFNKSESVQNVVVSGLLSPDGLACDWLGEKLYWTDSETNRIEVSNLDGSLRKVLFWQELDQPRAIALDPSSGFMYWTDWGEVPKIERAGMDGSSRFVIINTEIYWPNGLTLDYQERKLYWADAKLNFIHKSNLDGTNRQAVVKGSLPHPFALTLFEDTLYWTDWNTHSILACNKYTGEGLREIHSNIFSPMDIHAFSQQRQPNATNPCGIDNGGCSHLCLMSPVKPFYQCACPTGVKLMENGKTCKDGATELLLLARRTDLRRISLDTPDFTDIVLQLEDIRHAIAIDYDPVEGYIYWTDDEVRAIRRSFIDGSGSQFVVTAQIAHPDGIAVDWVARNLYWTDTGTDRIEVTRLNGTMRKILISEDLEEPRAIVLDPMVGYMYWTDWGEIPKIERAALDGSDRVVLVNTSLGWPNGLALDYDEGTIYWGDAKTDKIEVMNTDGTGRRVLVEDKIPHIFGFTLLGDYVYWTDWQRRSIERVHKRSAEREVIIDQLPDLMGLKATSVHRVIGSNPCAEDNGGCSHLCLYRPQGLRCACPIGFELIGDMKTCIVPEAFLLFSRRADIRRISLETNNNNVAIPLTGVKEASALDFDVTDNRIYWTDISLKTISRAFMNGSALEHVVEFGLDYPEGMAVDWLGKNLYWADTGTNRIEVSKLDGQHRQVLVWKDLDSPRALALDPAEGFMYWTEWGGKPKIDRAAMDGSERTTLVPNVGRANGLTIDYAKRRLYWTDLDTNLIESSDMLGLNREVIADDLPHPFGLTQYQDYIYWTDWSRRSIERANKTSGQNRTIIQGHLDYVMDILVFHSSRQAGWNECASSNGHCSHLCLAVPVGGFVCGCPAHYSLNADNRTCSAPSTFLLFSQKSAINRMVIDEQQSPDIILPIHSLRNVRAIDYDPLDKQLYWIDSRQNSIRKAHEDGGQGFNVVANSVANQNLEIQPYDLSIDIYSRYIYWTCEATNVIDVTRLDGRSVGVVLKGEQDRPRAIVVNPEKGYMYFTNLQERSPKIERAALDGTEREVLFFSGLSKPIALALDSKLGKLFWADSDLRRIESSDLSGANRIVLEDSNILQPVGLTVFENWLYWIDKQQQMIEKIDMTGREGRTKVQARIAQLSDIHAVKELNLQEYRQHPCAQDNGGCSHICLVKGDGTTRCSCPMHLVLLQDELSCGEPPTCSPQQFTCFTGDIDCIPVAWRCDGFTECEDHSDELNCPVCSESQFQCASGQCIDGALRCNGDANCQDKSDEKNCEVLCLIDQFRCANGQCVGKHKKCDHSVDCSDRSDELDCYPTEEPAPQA
Briefly: ELISA, 100 ng mLRP6 coated, DKK2 protein diluted serially from 100 nM, KD calculated from absorbance at 490 nm. Here is the method:
(§1) Each purified DKK2 protein and 100 μl of 1% (w/v) skim milk/1×PBS were mixed to prepare 100 nM of DKK2 protein, and 100 nM of DKK2 protein was subjected to ¼ serial dilution. The diluted protein was applied to the prepared ELISA plate, and incubated at room temperature for about 2 hours. Thereafter, the plate was washed with 200 μl of PBST five times.
(§2) 2 μl of anti-Human Fc-HRP (Cat. No. 31413, Thermo, USA) antibody was mixed with 4 ml of PBS containing 1% (w/v) skim milk, and 200 μl of this mixture was added to each well of ELISA plate and incubated at room temperature for 1 hour. Thereafter, the secondary antibody of the ELISA plate was removed, and the plate was washed with 200 of PBS five times. 10 μl of H₂O₂ solution (Cat. No. H1009-100ML, Sigma, USA), 10 ml of PC buffer (5.1 g of citric acid monohydrate, 7.3 g of sodium phosphate/L (pH 5.0)), and one tablet of OPD (Cat. No. P8787-100TAB, Sigma, USA) were mixed to prepare a mixture, and a total volume of 100 μl of the mixture was added to each well. Incubation was performed at room temperature in the dark for 10 minutes, followed by color development. Thereafter, 50 μl of a stop buffer was added to each well to terminate the color development. Absorbance at 490 nm was measured using an ELISA reader, and a dissociation constant KD value (M) was calculated from the measured absorbance. […]

The target of assay [2] is T2, human LRP6 (hLRP6) protein (Cat. No. 1505-LR-025, R&D, USA) (human, UniProt O75581 20-1368, limits assumed).
T2 construct: Coated on the ELISA plate
T2 sequence (looked up): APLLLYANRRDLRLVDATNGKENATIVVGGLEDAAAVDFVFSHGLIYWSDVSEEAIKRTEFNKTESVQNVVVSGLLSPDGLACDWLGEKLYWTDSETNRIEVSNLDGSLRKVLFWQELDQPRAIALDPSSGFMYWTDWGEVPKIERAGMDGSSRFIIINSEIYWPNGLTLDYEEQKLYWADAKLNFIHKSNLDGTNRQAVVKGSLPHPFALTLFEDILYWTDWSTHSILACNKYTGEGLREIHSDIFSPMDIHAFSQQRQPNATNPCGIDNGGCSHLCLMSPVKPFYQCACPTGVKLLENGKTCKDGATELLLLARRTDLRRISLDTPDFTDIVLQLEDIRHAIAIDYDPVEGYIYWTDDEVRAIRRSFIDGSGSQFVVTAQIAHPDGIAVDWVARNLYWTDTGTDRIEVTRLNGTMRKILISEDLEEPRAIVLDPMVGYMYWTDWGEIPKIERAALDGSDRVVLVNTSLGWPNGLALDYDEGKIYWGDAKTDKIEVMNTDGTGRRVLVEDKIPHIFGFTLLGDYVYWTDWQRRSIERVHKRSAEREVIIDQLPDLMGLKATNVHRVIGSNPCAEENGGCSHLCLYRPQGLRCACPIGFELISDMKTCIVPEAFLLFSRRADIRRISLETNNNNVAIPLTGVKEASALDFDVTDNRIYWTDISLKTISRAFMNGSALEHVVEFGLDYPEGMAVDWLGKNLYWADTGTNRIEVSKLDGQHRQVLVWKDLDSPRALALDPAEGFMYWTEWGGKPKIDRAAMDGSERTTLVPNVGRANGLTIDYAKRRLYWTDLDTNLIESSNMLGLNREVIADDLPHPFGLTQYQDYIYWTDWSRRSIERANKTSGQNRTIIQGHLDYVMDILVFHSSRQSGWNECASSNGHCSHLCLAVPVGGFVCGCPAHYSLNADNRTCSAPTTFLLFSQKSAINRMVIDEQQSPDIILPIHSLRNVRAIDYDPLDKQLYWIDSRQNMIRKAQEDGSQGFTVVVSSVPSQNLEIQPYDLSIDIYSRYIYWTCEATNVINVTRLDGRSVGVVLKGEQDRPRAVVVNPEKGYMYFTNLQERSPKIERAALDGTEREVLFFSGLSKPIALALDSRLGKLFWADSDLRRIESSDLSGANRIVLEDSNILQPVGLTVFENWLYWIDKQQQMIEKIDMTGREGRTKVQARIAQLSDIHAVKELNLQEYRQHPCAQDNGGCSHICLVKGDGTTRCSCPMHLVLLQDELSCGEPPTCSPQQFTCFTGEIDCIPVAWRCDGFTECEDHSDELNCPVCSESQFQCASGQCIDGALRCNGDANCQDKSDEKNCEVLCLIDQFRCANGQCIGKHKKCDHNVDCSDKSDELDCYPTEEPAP
Briefly: ELISA, 100 ng hLRP6 coated, DKK2 protein diluted serially from 100 nM, KD calculated from absorbance at 490 nm. How it is done: as §1, §2

For orientation: Kd means the constant that tells how readily two partners part at equilibrium.

B1: N-Fc-DKK2-Gly4 (Fc fusion)
chain: [sequence of human IgG1 Fc not given]KLNSIKSSLGGETPGQAANRSAGMYQGLAFGGSKKGKNLGQAYPCSSDKECEVGRYCHSPHQGSSACMVCRRKKKRCHRDGMCCPSTRCNNGICIPVTESILTPHIPALNGTRHRDRNHGHYSNHDLGWQNLGRPHTKMSHIKGHEGDPCLRSSDCIEGFCCARHFWTKICKPVLHQGEVCTKQRKKGSHGLEIFQRCDCAKGLSCKVWKDATYSSKARLHVCQKI
notes: also called DKK2 N-Gly4; N-Fc-DKK2-N-Gly4
Turning to B1, the results for the Kd in assay [1] and in assay [2] were 10 nM and 5.5 nM, respectively.
